In article PMC4336329 (PLoS ONE, 2015):
Screen size: about 310,000 compounds; about 14,000 (4.5%) showed an effect of 50% or more. The effect is printed as a negative number. Some of the results follow.

target: human ether-à-go-go-related gene (hERG) potassium channel (human, UniProt Q12809); experiment: primary screen, population patch clamp on CHO cells stably expressing hERG
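Note: peak tail current of the secondary pulse compared with the same well before compound.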

Chain of human ether-à-go-go-related gene (hERG) potassium channel (Q12809 whole entry, looked up): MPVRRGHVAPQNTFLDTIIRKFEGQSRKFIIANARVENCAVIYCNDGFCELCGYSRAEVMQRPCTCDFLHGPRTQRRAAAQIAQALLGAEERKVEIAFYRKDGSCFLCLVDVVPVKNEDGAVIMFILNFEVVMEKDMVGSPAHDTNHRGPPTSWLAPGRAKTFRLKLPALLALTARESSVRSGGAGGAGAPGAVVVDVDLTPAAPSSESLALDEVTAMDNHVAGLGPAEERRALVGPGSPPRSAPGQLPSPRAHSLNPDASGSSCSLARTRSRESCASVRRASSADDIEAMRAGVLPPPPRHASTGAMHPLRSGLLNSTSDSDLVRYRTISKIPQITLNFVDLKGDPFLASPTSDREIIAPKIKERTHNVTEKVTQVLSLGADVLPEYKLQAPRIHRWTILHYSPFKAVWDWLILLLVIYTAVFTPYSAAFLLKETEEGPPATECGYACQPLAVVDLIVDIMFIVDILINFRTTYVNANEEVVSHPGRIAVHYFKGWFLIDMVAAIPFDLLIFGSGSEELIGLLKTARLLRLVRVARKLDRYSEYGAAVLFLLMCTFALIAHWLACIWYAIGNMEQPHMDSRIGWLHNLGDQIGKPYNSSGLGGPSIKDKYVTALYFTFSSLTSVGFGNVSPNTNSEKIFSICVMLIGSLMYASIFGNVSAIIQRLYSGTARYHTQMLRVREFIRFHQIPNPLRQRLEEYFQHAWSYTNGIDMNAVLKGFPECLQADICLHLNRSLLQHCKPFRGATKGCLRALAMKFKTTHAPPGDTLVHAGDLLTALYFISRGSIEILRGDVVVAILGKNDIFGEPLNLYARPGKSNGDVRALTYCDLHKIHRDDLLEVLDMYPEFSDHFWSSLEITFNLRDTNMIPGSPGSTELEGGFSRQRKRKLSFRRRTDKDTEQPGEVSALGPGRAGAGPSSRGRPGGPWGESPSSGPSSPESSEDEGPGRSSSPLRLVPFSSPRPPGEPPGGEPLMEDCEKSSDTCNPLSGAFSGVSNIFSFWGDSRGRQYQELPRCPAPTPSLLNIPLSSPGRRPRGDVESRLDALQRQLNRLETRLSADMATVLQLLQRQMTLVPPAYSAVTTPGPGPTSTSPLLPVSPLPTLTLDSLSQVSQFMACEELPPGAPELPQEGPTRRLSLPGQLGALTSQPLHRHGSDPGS

Compound | hERG current change (%, negative = inhibition) at 10uM [%]
CCOc1ccccc1OCCNC1CCCC1 | 8.26
COc1ccc(CCNS(=O)(=O)c2cccc([N+](=O)[O-])c2)cc1 | -17.5
CCCC(c1nnnn1C1CCCC1)N1CCN(c2ccccc2F)CC1.Cl (stereo not drawn) | -27.9
CSc1ccccc1OCc1cc(C(=O)NC2CCOC(C)(C)C2)no1 (stereo not drawn) | 5.07
CC(=O)Nc1cccc(OCCCOc2ccc([N+](=O)[O-])cc2)c1 | 15.2
Cc1ccccc1OCC(=O)NS(=O)(=O)c1ccc(Cl)cc1 | 14.8
CCN(CC)CC(=O)c1c[nH]c2ccc(OC)cc12 | -22.9
Cc1onc(-c2c(Cl)cccc2Cl)c1C(=O)Nc1ccc2c(c1)OCO2 | -23
COc1ccc(Cl)cc1-c1nc(SCC(=O)NC2CC2)n[nH]1 | -9.95
O=C(Nc1ccccc1Cl)C1CCN(S(=O)(=O)c2cccc3nonc23)CC1 | 16
CCc1c(C#N)c(SCCC(=O)Nc2ccc(C)cc2)nc2c1C(=O)CC(C)(C)C2 | 10.6
COc1ccc(NC(=S)N(CCCN2CCCC(C)C2)Cc2cccs2)cc1 (stereo not drawn) | -68.9
CCC1CCc2c(sc(NC(=O)C3c4ccccc4Oc4ccccc43)c2C(N)=O)C1 (stereo not drawn) | 2.02
O=C(CSc1nnc(-c2ccccc2)c(-c2ccccc2)n1)Nc1ncc(Cl)cc1Cl | -13.9
CC(C)CN(CCNC(=O)CN1C(=O)CSc2ccc(S(=O)(=O)N3CCOCC3)cc21)CC(C)C | -25
COc1cccc(-n2c(CNc3ccc(F)cc3)nnc2SCC(N)=O)c1 | -11.8
CC(OC(=O)c1cc(=O)[nH]c2ccccc12)C(=O)Nc1ccccc1F (stereo not drawn) | -1.86
CCOc1cc(CO)cc(Br)c1OCC(N)=O | 17.7
COc1ccccc1C(=O)Nc1ccc(S(=O)(=O)NC2=NCCCCC2)cc1 | 13.4
CC/C(O)=C1\C(=O)CC(c2ccccc2)CC1=NC(C)C (stereo not drawn) | -5.84
COc1ccc(NC(=O)Nc2nnc(CC(=O)NCc3ccccc3)s2)cc1 | 11.3
CCCC[C@@H]1CCCO[C@@](C(=O)NCc2ccc(C)o2)(C(F)(F)F)C1 | -6.8
COc1ccccc1CNc1ncnc2cc(OC)c(OC)cc12 | -32

Compound | hERG current change (%, negative = inhibition) at 10uM [%]
Cc1ccc(NNS(=O)(=O)c2ccc(C)cc2)cc1 | 1.37
CCOc1ccccc1C(=O)Nc1ccc2nc3n(c(=O)c2c1)CCCCC3 | 1.73
O=C(NCc1ccc(F)cc1)c1cc2c(cc1Cl)N1CCCCCC1=NS2(=O)=O | -0.409
COc1ccc(Cl)cc1NC(=O)CN(C)C(=O)c1cccc(-n2cnnn2)c1 | -53.6
Cc1[nH]n(-c2ccc([N+](=O)[O-])cc2)c(=O)c1C=NCCN1CCN(C(=O)C(C)C)CC1 | -64.2
CCC1(CC)Cc2ccccc2-c2nc(NCCCO)[nH]c(=O)c21 | 7.05
COc1ccc(Br)cc1CN1CCN(S(=O)(=O)Cc2ccccc2)CC1 | -5.27
CCOc1ccc(C2c3c(oc4cc(C)c(C)cc4c3=O)C(=O)N2CCCN2CCOCC2)cc1 (stereo not drawn) | -21.6
CCc1cc(C(=O)NNC(=S)Nc2cc(C)ccc2C)cs1 | 6.73
CCCC1=[N+](CC)CCn2c(C)ccc21.[Br-] | 10.9
C=CCNc1ncnc2c1cnn2-c1ccc(Cl)cc1 | 9.53
Cc1onc(-c2ccccc2)c1C(=O)N/N=C/c1cccs1 | 0.544
Cc1ccccc1NC(=O)CCC(=O)N/N=C/c1ccncc1 | 23.2
Cc1cnc(C(=O)OC(C)C(=O)Nc2ccc3c(c2)OCCO3)cn1 (stereo not drawn) | 0.452
Cc1cc2c(Nc3ccc(C(=O)O)cc3)ncnc2s1.Cl | 25.1
Cc1ccc(OCCNC(=O)c2ccc3c(c2)OCO3)cc1 | 2.05
COc1ccc(S(=O)(=O)N2CC3CC(C2)c2cccc(=O)n2C3)cc1 (stereo not drawn) | 0.671
Cc1ccc(C)c(NC(=S)NCc2ccc3[nH]c4c(c3c2)CCCC4)c1 | 7.84
CN1C2CCC1/C(=C/c1ccccn1)C(=O)/C2=C\c1ccccn1 | -24.4
CC(C)Cn1c(SCC(=O)N2CC(=O)Nc3ccccc32)nc2ccccc21 | 4.27
CCCCN(Cc1cc2ccccc2[nH]c1=O)C(=O)c1ccccn1 | 13.5
Cc1c(CC(=O)N2CCN(C(=O)C3COc4ccccc4O3)CC2)c(=O)oc2c(O)c(O)ccc12 (stereo not drawn) | -0.208
